These results are taken from the antibiotic and cytotoxicity screens of Wong et al. (2023).

Some of the results follow.

One test concerns HSkMC (human skeletal muscle cells). As to the kind of experiment: cytotoxicity call (relative viability < 0.9). Conditions: 10 µM.
Take `Cc1noc(C)c1S(=O)(=O)Nc1ccc2c(c1)C(=O)N([C@@H](C)CO)C[C@@H](C)[C@H](CN(C)Cc1ccc(Cl)c(Cl)c1)OCCCC[C@@H](C)O2`: the cytotoxicity call is “inactive”.

In the case of `CC(C)NC(=O)N(C)C[C@@H]1Oc2c(NS(=O)(=O)c3ccccc3)cccc2C(=O)N([C@H](C)CO)C[C@@H]1C`, the cytotoxicity call was “inactive”.

Regarding `COc1ccc2c3c(n(c2c1)C)[C@@H](CO)N(C[C@]13CCN(CC1)C(=O)Nc1c(noc1C)C)C(=O)Nc1ccc(cc1)F`, the cytotoxicity call is “inactive”.

As for `COc1ccc(NC(=O)N(C)C[C@H]2OCCCC[C@@H](C)Oc3ccc(NS(=O)(=O)c4ccc(OC)cc4)cc3C(=O)N([C@@H](C)CO)C[C@@H]2C)cc1`, the cytotoxicity call is “inactive”.

For `C=C[C@H]1[C@H](O[C@H]2O[C@@H](CO)[C@@H](O)[C@@H](O)[C@@H]2O)OC=C(C(=O)OC)[C@H]1CCOC(=O)c1cc(O)c(O)c(O)c1`, the cytotoxicity call is “inactive”.

`CCS(=O)(=O)Nc1ccc2c(c1)C(=O)N(C)C[C@H](OC)[C@H](C)CN(C(=O)c1ccc3c(c1)OCO3)[C@@H](C)CO2`: the cytotoxicity call is “inactive”.

As for `C[C@@H]1CCCCO[C@@H](CN(C)Cc2ccc(C(=O)Nc3ccccc3N)cc2)[C@@H](C)CN([C@H](C)CO)C(=O)c2cc(NS(=O)(=O)c3ccc(Cl)cc3)ccc2O1`, the cytotoxicity call is “inactive”.

`C[C@H]1CCCCO[C@@H](CN(C)S(=O)(=O)c2ccccc2)[C@@H](C)CN([C@@H](C)CO)C(=O)c2cc(NS(=O)(=O)c3cn(C)cn3)ccc2O1`: the cytotoxicity call is “inactive”.

For `COc1cccc(S(=O)(=O)N(C)C[C@@H]2Oc3cc(C#CCN(C)C)ccc3S(=O)(=O)N([C@@H](C)CO)C[C@H]2C)c1`, the cytotoxicity call is “inactive”.

For `C[C@H](CO)N1C[C@H](C)[C@@H](CN(C)S(=O)(=O)c2cn(C)cn2)Oc2ccc(NC(=O)Nc3ccc4c(c3)OCO4)cc2CC1=O`, the cytotoxicity call was “inactive”.

As for `c1ccc([C@@H]2CNCCN2)cc1`, the cytotoxicity call was “inactive”.

Regarding `Cc1noc(C)c1NC(=O)N(C)C[C@@H]1Oc2ccc(NS(=O)(=O)c3c(C)noc3C)cc2CC(=O)N([C@H](C)CO)C[C@@H]1C`, the cytotoxicity call was “inactive”.

As for `C[C@H]1CCCCO[C@@H](CN(C)CC2CCCCC2)[C@@H](C)CN([C@@H](C)CO)C(=O)c2cc(NS(=O)(=O)c3ccccc3)ccc2O1`, the cytotoxicity call is “inactive”.

Regarding `C[C@@H]1CCCCO[C@H](CN(C)Cc2ccccc2)[C@@H](C)CN([C@H](C)CO)C(=O)c2cc(NC(=O)Nc3ccc(F)cc3)ccc2O1`, the cytotoxicity call was “inactive”.

For `CO[C@H]1CN(C)C(=O)c2cc(NC(=O)c3ccccc3)ccc2OC[C@H](C)N(C(=O)CN(C)C)C[C@H]1C`, the cytotoxicity call is “inactive”.

For the compound `C[C@H]1CCCCO[C@@H](CN(C)C(=O)Nc2ccc(F)cc2)[C@@H](C)CN([C@@H](C)CO)C(=O)c2cc(NS(=O)(=O)c3cccs3)ccc2O1`, the cytotoxicity call is “inactive”.

As for `CC=Cc1ccc(OC)cc1`, the cytotoxicity call was “inactive”.

`C[C@H]1CCCCO[C@@H](CN(C)Cc2ccc(C(=O)O)cc2)[C@@H](C)CN([C@@H](C)CO)C(=O)c2cc(NS(=O)(=O)c3ccc(Cl)cc3)ccc2O1`: the cytotoxicity call was “inactive”.

In the case of `CON=C(C(=O)N[C@@H]1C(=O)N2C(C(=O)OCOC(=O)C(C)(C)C)=C(C=Cc3scnc3C)CS[C@H]12)c1csc(N)n1`, the cytotoxicity call is “inactive”.

Consider `O=C(Nc1cccc([N+](=O)[O-])c1)C(=O)NC1CC1`, for which the cytotoxicity call was “inactive”.

Regarding `C[C@@H]1CN([C@H](C)CO)C(=O)c2cc(N(C)C)ccc2O[C@@H](C)CCCCO[C@@H]1CN(C)Cc1ccc(C(F)(F)F)cc1`, the cytotoxicity call was “inactive”.

For `CC(C)NC(=O)Nc1ccc2c(c1)C(=O)N([C@H](C)CO)C[C@@H](C)[C@@H](CN(C)C(=O)NC1CCCCC1)O2`, the cytotoxicity call is “inactive”.

`C[C@H]1CCCCO[C@H](CN(C)Cc2ccc(C(=O)O)cc2)[C@@H](C)CN([C@@H](C)CO)C(=O)c2cc(NC(=O)CCC(F)(F)F)ccc2O1`: the cytotoxicity call was “inactive”.

Turning to `C[C@H]1CN([C@@H](C)CO)S(=O)(=O)c2ccc(C#CC3CC3)cc2O[C@H]1CN(C)Cc1ccccc1F`, the cytotoxicity call was “inactive”.

Regarding `C=CCN(CCCC)C(=O)[C@H]1N(C(C)(C)CO)C(=O)[C@H]2[C@H](C(=O)O)[C@@H]3C=C[C@@]21O3`, the cytotoxicity call was “inactive”.

As to `CC(C)N1C(=O)C[C@@](C(=O)NCCN2CCOCC2)(c2ccc([N+](=O)[O-])cc2)[C@H]1c1ccc(CO)cc1`, the cytotoxicity call was “inactive”.

Turning to `CC(C)CC#Cc1ccc2c(c1)O[C@H](CN(C)C(=O)NC1CCCC1)[C@@H](C)CN([C@@H](C)CO)S2(=O)=O`, the cytotoxicity call was “inactive”.

Consider `OC[C@@H](O)[C@H]1O[C@H](c2ccccc2)OC[C@@H]1O`, for which the cytotoxicity call is “inactive”.

Another test has as its system HepG2. As to the kind of experiment: cytotoxicity call (relative viability < 0.9). As to conditions: 10 µM.
Regarding `O=C(C[C@H]1C[C@H]2c3cc(NS(=O)(=O)c4ccc(F)cc4)ccc3O[C@H]2[C@@H](CO)O1)NCc1ccccn1`, the cytotoxicity call is “inactive”.

Regarding `C[C@@H]1CCCCO[C@H](CN(C)C)[C@H](C)CN([C@@H](C)CO)C(=O)c2cc(NC(=O)CCCN(C)C)ccc2O1`, the cytotoxicity call is “inactive”.

Turning to `Cc1ccc(S(=O)(=O)N(C)C[C@@H]2Oc3c(NS(C)(=O)=O)cccc3C(=O)N([C@H](C)CO)C[C@@H]2C)cc1`, the cytotoxicity call is “inactive”.

In the case of `C[C@@H]1CN([C@H](C)CO)C(=O)c2cccc(NC(=O)c3ccc(-c4nccs4)cc3)c2O[C@@H]1CN(C)S(=O)(=O)c1ccc(Cl)cc1`, the cytotoxicity call was “inactive”.

Regarding `C[C@@H]1CCCCO[C@@H](CN(C)C(=O)Cc2ccccc2)[C@H](C)CN([C@H](C)CO)C(=O)c2cc(NS(=O)(=O)c3cccs3)ccc2O1`, the cytotoxicity call was “inactive”.

Consider `Cl.O=C(COc1ccc(Cl)cc1)N1CCN(Cc2ccc3c(c2)OCO3)CC1`, for which the cytotoxicity call is “inactive”.

Regarding `Clc1ccc(C(c2ccc(Cl)cc2)[n+]2ccn(C[C@@H](OCc3ccc(Cl)cc3Cl)c3ccc(Cl)cc3Cl)c2)cc1`, the cytotoxicity call was “active”.

For `O=C(C[C@@H]1CC[C@H]2[C@@H](COC[C@H](O)CN2C(=O)c2ccc3c(c2)OCO3)O1)NCCN1CCCC1`, the cytotoxicity call is “inactive”.

As for `C[C@H](CO)N1C[C@H](C)[C@H](CN(C)C(=O)C2CCOCC2)Oc2ncc(C#CC3(O)CCCC3)cc2C1=O`, the cytotoxicity call was “inactive”.

Take `CN1CCN(c2cc3c(cc2F)c(=O)c(C(=O)O)cn3-c2ccc(F)cc2)CC1.Cl`: the cytotoxicity call is “inactive”.

As for `C=CC[C@H](CC(=O)NCCO)C(=O)NC[C@@H](OC(=O)[C@H](CC=C)CC(=O)OC(C)(C)C)c1ccccc1`, the cytotoxicity call is “inactive”.

`Cc1noc(C)c1S(=O)(=O)Nc1ccc2c(c1)C(=O)N([C@@H](C)CO)C[C@@H](C)[C@H](CN(C)Cc1ccc(Cl)c(Cl)c1)OCCCC[C@@H](C)O2`: the cytotoxicity call was “inactive”.

Regarding `CC(C)NC(=O)N(C)C[C@@H]1Oc2c(NS(=O)(=O)c3ccccc3)cccc2C(=O)N([C@H](C)CO)C[C@@H]1C`, the cytotoxicity call is “inactive”.

In the case of `COc1ccc2c3c(n(c2c1)C)[C@@H](CO)N(C[C@]13CCN(CC1)C(=O)Nc1c(noc1C)C)C(=O)Nc1ccc(cc1)F`, the cytotoxicity call was “inactive”.

For `COc1ccc(NC(=O)N(C)C[C@H]2OCCCC[C@@H](C)Oc3ccc(NS(=O)(=O)c4ccc(OC)cc4)cc3C(=O)N([C@@H](C)CO)C[C@@H]2C)cc1`, the cytotoxicity call is “inactive”.

Take `C=C[C@H]1[C@H](O[C@H]2O[C@@H](CO)[C@@H](O)[C@@H](O)[C@@H]2O)OC=C(C(=O)OC)[C@H]1CCOC(=O)c1cc(O)c(O)c(O)c1`: the cytotoxicity call is “inactive”.

On to `CCS(=O)(=O)Nc1ccc2c(c1)C(=O)N(C)C[C@H](OC)[C@H](C)CN(C(=O)c1ccc3c(c1)OCO3)[C@@H](C)CO2`, for which the cytotoxicity call was “inactive”.

Take `C[C@@H]1CCCCO[C@@H](CN(C)Cc2ccc(C(=O)Nc3ccccc3N)cc2)[C@@H](C)CN([C@H](C)CO)C(=O)c2cc(NS(=O)(=O)c3ccc(Cl)cc3)ccc2O1`: the cytotoxicity call is “inactive”.

`C[C@H]1CCCCO[C@@H](CN(C)S(=O)(=O)c2ccccc2)[C@@H](C)CN([C@@H](C)CO)C(=O)c2cc(NS(=O)(=O)c3cn(C)cn3)ccc2O1`: the cytotoxicity call is “inactive”.

Regarding `COc1cccc(S(=O)(=O)N(C)C[C@@H]2Oc3cc(C#CCN(C)C)ccc3S(=O)(=O)N([C@@H](C)CO)C[C@H]2C)c1`, the cytotoxicity call was “inactive”.

In the case of `C[C@H](CO)N1C[C@H](C)[C@@H](CN(C)S(=O)(=O)c2cn(C)cn2)Oc2ccc(NC(=O)Nc3ccc4c(c3)OCO4)cc2CC1=O`, the cytotoxicity call is “inactive”.

As to `c1ccc([C@@H]2CNCCN2)cc1`, the cytotoxicity call was “inactive”.

As to `Cc1noc(C)c1NC(=O)N(C)C[C@@H]1Oc2ccc(NS(=O)(=O)c3c(C)noc3C)cc2CC(=O)N([C@H](C)CO)C[C@@H]1C`, the cytotoxicity call was “inactive”.

In the case of `C[C@H]1CCCCO[C@@H](CN(C)CC2CCCCC2)[C@@H](C)CN([C@@H](C)CO)C(=O)c2cc(NS(=O)(=O)c3ccccc3)ccc2O1`, the cytotoxicity call is “inactive”.

Take `C[C@@H]1CCCCO[C@H](CN(C)Cc2ccccc2)[C@@H](C)CN([C@H](C)CO)C(=O)c2cc(NC(=O)Nc3ccc(F)cc3)ccc2O1`: the cytotoxicity call is “inactive”.

In the case of `CO[C@H]1CN(C)C(=O)c2cc(NC(=O)c3ccccc3)ccc2OC[C@H](C)N(C(=O)CN(C)C)C[C@H]1C`, the cytotoxicity call is “inactive”.

`C[C@H]1CCCCO[C@@H](CN(C)C(=O)Nc2ccc(F)cc2)[C@@H](C)CN([C@@H](C)CO)C(=O)c2cc(NS(=O)(=O)c3cccs3)ccc2O1`: the cytotoxicity call was “inactive”.

In the case of `CC=Cc1ccc(OC)cc1`, the cytotoxicity call was “active”.

As to `C[C@H]1CCCCO[C@@H](CN(C)Cc2ccc(C(=O)O)cc2)[C@@H](C)CN([C@@H](C)CO)C(=O)c2cc(NS(=O)(=O)c3ccc(Cl)cc3)ccc2O1`, the cytotoxicity call was “inactive”.

Turning to `CON=C(C(=O)N[C@@H]1C(=O)N2C(C(=O)OCOC(=O)C(C)(C)C)=C(C=Cc3scnc3C)CS[C@H]12)c1csc(N)n1`, the cytotoxicity call was “inactive”.

`O=C(Nc1cccc([N+](=O)[O-])c1)C(=O)NC1CC1`: the cytotoxicity call is “inactive”.

For the compound `C[C@@H]1CN([C@H](C)CO)C(=O)c2cc(N(C)C)ccc2O[C@@H](C)CCCCO[C@@H]1CN(C)Cc1ccc(C(F)(F)F)cc1`, the cytotoxicity call was “inactive”.

Turning to `CC(C)NC(=O)Nc1ccc2c(c1)C(=O)N([C@H](C)CO)C[C@@H](C)[C@@H](CN(C)C(=O)NC1CCCCC1)O2`, the cytotoxicity call was “inactive”.

Turning to `C[C@H]1CCCCO[C@H](CN(C)Cc2ccc(C(=O)O)cc2)[C@@H](C)CN([C@@H](C)CO)C(=O)c2cc(NC(=O)CCC(F)(F)F)ccc2O1`, the cytotoxicity call is “inactive”.
